Reference: the supplement of paper PMC4996465
Viability of KB3-1 and Nalm-6 cells after 48 h of drug alone (CellTiter-Glo), 11 doses over about 4.5 log units. % of DMSO wells, lower = more cell loss; AC50 from the fitted curve, lower = more potent. No active / inactive call. Nalm-6 was screened in two runs. AC50 is listed only for well-fitted inhibitory curves. KB3-1 is a HeLa-derived carcinoma line, Nalm-6 a B-cell precursor leukaemia line.

Key:
[1] = tested on: KB3-1; experiment: viability (% of DMSO control); higher = more viable cells
Experimental: (§1)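 Eleven-dose screen of the NCATS MIPE 3 library on cells without co-treatment; CellTiter-Glo after 48 h, as % of DMSO wells.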

[2] = tested on: Nalm-6; experiment: as above
Experimental: as §1

[3] = tested on: Nalm-6; experiment: log AC50 of viability decrease (48 h) (log10 M); higher = less potent
Experimental: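 Eleven-dose screen of the NCATS MIPE 3 library on cells without co-treatment; CellTiter-Glo after 48 h. AC50 from the curve fit; only inhibitory curves of the better fit classes are listed.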

SMILES | viability ([1]; 0.00078 µM) | viability ([1]; 0.00234 µM) | viability ([1]; 0.00702 µM) | viability ([1]; 0.0211 µM) | viability ([1]; 0.0632 µM) | viability ([1]; 0.19 µM) | viability ([1]; 0.569 µM) | viability ([1]; 1.71 µM) | viability ([1]; 5.12 µM) | viability ([1]; 15.4 µM) | viability ([1]; 46.1 µM) | viability ([2]; run: 1, 0.00078 µM) | viability ([2]; run: 1, 0.00234 µM) | viability ([2]; run: 1, 0.00702 µM) | viability ([2]; run: 1, 0.0211 µM) | viability ([2]; run: 1, 0.0632 µM) | viability ([2]; run: 1, 0.19 µM) | viability ([2]; run: 1, 0.569 µM) | viability ([2]; run: 1, 1.71 µM) | viability ([2]; run: 1, 5.12 µM) | viability ([2]; run: 1, 15.4 µM) | viability ([2]; run: 1, 46.1 µM) | viability ([2]; run: 2, 0.00078 µM) | viability ([2]; run: 2, 0.00234 µM) | viability ([2]; run: 2, 0.00702 µM) | viability ([2]; run: 2, 0.0211 µM) | viability ([2]; run: 2, 0.0632 µM) | viability ([2]; run: 2, 0.19 µM) | viability ([2]; run: 2, 0.569 µM) | viability ([2]; run: 2, 1.71 µM) | viability ([2]; run: 2, 5.12 µM) | viability ([2]; run: 2, 15.4 µM) | viability ([2]; run: 2, 46.1 µM) | log AC50 of viability decrease ([3]; run: 1) | log AC50 of viability decrease ([3]; run: 2)
OC(CN1CCC(Cc2ccc(F)cc2)CC1)c1ccc(Cl)cc1 (configuration not stated) [Eliprodil] | 102% | 104% | 102% | 103% | 102% | 98.1% | 99% | 100% | 89.9% | 100% | 77.4% | 117% | 122% | 111% | 115% | 111% | 116% | 111% | 121% | 109% | 71.8% | 35.8% | 104% | 106% | 101% | 106% | 103% | 106% | 104% | 109% | 95.9% | 93.9% | 4.61% | -4.83 | 
C[N]1C=C(C2=CC=CC=C12)\C3=C(\C(=O)NC3=O)C4=C[N](C5CCN(CC5)CC6=NC=CC=C6)C7=C4C=CC=C7 [Enzastaurin] | 99.8% | 97.3% | 94.3% | 97.6% | 99.4% | 102% | 99.9% | 107% | 109% | 103% | 34.8% | 90.4% | 107% | 104% | 107% | 111% | 112% | 108% | 114% | 73.5% | 42.8% | 6.59% | 101% | 111% | 99.8% | 102% | 104% | 105% | 105% | 105% | 34.1% | 13% | 4.81% | -4.93 | -5.38
CCOC(=O)[C@@H](N)CCC(=O)N[C@@H](CSCc1ccccc1)C(=O)N[C@@H](C(=O)OCC)c1ccccc1 [Ezatiostat] | 101% | 103% | 106% | 106% | 110% | 109% | 115% | 107% | 110% | 107% | 101% | 121% | 118% | 127% | 116% | 126% | 121% | 121% | 122% | 115% | 84% | 8.9% | 103% | 105% | 112% | 105% | 108% | 112% | 112% | 109% | 101% | 93.1% | 4.91% | -4.73 | -4.63
COC1=CC=CC=C1C2=CC=CC(=C2)C/3=C(O)/C4=CC(=C(Cl)C=C4NC3=O)C#N [FASN MRK] | 106% | 105% | 105% | 97.5% | 102% | 102% | 101% | 100% | 98.9% | 98.1% | 87.6% | 121% | 117% | 128% | 125% | 115% | 113% | 112% | 111% | 105% | 99.3% | 75.9% | 111% | 106% | 108% | 106% | 110% | 105% | 103% | 104% | 104% | 98.6% | 93.4% | -4.73 | 
CN1CC(=O)N=C1NC(=O)Nc1cccc(Cl)c1 [Fenobam] | 100% | 102% | 103% | 103% | 99.4% | 99.2% | 98.8% | 96.7% | 95.5% | 97% | 87.5% | 111% | 108% | 107% | 105% | 99.8% | 95.6% | 89.5% | 77.2% | 65.7% | 76.7% | 67.8% | 105% | 104% | 102% | 103% | 101% | 104% | 107% | 110% | 106% | 109% | 99.9% | -6.38 | 
O=C(O)Cc1cccc(OCCCN(Cc2cccc(C(F)(F)F)c2Cl)CC(c2ccccc2)c2ccccc2)c1 [GSK-3965] | 97.1% | 102% | 96.9% | 97.6% | 100% | 104% | 102% | 98.5% | 102% | 96.2% | 44.6% | 93.1% | 98.1% | 89.6% | 66.2% | 25.2% | -0.454% | -1.65% | -1.97% | -2.07% | -2.06% | -2.21% | 78.7% | 94.5% | 89.9% | 94.5% | 104% | 93.4% | 95.4% | 102% | 103% | 96.2% | 1.31% | -7.48 | 
CC(C)(C)OC(=O)CN(Cc1ccc(Cl)cc1)Cc1ccc([N+](=O)[O-])s1 [GSK-4112] | 102% | 104% | 109% | 108% | 104% | 111% | 109% | 101% | 101% | 101% | 69.7% | 117% | 121% | 124% | 117% | 121% | 118% | 117% | 117% | 103% | 77.4% | 5.09% | 106% | 105% | 105% | 105% | 104% | 106% | 106% | 20.7% | 94.6% | 3.94% | 2% | -4.73 | 
CC(C)c1onc(-c2c(Cl)cccc2Cl)c1COc1ccc(/C=C/c2cccc(C(=O)O)c2)c(Cl)c1 [GW-4064X] | 99.7% | 108% | 106% | 111% | 108% | 107% | 110% | 102% | 103% | 97.9% | 73.3% | 133% | 127% | 131% | 129% | 134% | 128% | 136% | 128% | 127% | 114% | 55.9% | 104% | 111% | 102% | 113% | 107% | 107% | 103% | 107% | 14.8% | 1.17% | 10.7% | -4.68 | -5.48
COc1cc2ncnc(Nc3ccc(F)c(Cl)c3)c2cc1OCCCN1CCOCC1 [Gefitinib] | 104% | 104% | 103% | 102% | 101% | 105% | 100% | 99.8% | 96.4% | 98.4% | 29.9% | 131% | 132% | 123% | 129% | 120% | 111% | 112% | 109% | 103% | 104% | 5.97% | 104% | 101% | 102% | 103% | 107% | 102% | 104% | 95.4% | 98.2% | 98.2% | 6.4% | -4.58 | 
CNC1CCC(N(Cc2cccc(-c3ccncc3)c2)C(=O)c2sc3c(F)ccc(F)c3c2Cl)CC1 (configuration not stated) [Hh-Ag1.5] | 98.3% | 94.5% | 97% | 90.5% | 60% | 49.7% | 92.2% | 95.2% | 87.3% | 87.1% | 0.177% | 89.5% | 99.8% | 101% | 107% | 105% | 101% | 95.8% | 92.5% | 68.5% | 61.8% | 0.174% | 107% | 100% | 100% | 109% | 103% | 104% | 95% | 89.5% | 77.2% | 74.6% | 0.199% | -4.78 | -4.68
C[C@]\12CCC(=O)\C=C1CC[C@H]3[C@@H]4CC[C@](O)(C(=O)CO)[C@@]4(C)C[C@H](O)[C@H]23 [Hydrocortisone] | 97.1% | 104% | 100% | 103% | 96.4% | 103% | 96.4% | 98.9% | 96% | 96.5% | 86.6% | 108% | 119% | 105% | 100% | 94.7% | 84.8% | 70.4% | 72.9% | 63.6% | 63% | 50.5% | 101% | 106% | 105% | 96.8% | 91.3% | 84.4% | 76.6% | 67.7% | 65% | 70% | 52.7% | -6.68 | -6.53
O=C(c1ccc(Nc2nccc(-c3cc4ccccc4s3)n2)cc1)N1CCC(N2CCCC2)CC1 [IKK16] | 97.5% | 95% | 82.4% | 43.7% | 32.9% | 26.7% | 20.5% | 84.5% | 20.3% | 46% | -1.02% | 41.9% | 88.1% | 87.2% | 91.1% | 88.1% | 81.9% | 86.7% | 74.9% | 56.8% | 43% | -0.433% | 94.5% | 101% | 94.4% | 103% | 97.1% | 96.7% | 97.1% | 89.6% | 68.2% | 44.8% | 0.125% |  | -4.78
Cc1csc(NC(=O)c2sc3nc4c(c(C(F)(F)F)c3c2N)CCC4)n1 [Irestatin 9389] | 106% | 111% | 108% | 109% | 105% | 106% | 105% | 109% | 101% | 105% | 67.2% | 112% | 112% | 114% | 106% | 113% | 110% | 110% | 114% | 105% | 96.6% | 46% | 106% | 110% | 102% | 107% | 104% | 101% | 98.6% | 101% | 33.2% | 83.1% | 20.3% | -4.68 | 
CC(C)(C)C1=CC(=C(NC(=O)C/2=C/NC3=C(C=CC=C3)C2=O)C=C1O)C(C)(C)C [Ivacaftor] | 102% | 101% | 102% | 102% | 102% | 101% | 103% | 102% | 97.1% | 94% | 4.06% | 96.3% | 100% | 109% | 101% | 106% | 100% | 102% | 96.3% | 104% | 84.2% | 4.54% | 98.8% | 95.3% | 98.6% | 98.5% | 99.1% | 94.2% | 94.6% | 91% | 96.2% | 51.6% | 4.09% | -4.63 | -4.78
